For at least one compound, name, drawing or mass did not settle the structure.
Tested on: Aconitinarrhythmie
Format: in vivo, Ratte
Details: for i.v.-ED₂₀: i.v. 2 min before aconitine 50 µg/kg i.v., dose at which only isolated extrasystoles remain; for p.o.-ED₂₀: p.o. 1 h before aconitine i.v.

Structure (SMILES) | i.v.-ED₂₀ | p.o.-ED₂₀
CC(=O)O.[H]/N=C(/NN=C(c1ccccc1)c1cc(Cl)ccc1N)Nc1ccccc1 [(E)-2-Amino-5-chlorbenzophenon-N-phenylamidinohydrazonacetat] | 3,8 . 10⁻⁶ mol/kg | –
CC[C@H]1[C@@H]2C[C@H]3[C@@H]4N(C)c5ccccc5[C@]45C[C@@H]([C@@H]2[C@H]5O)N3[C@@H]1O [Ajmalin] | 1,0 . 10⁻⁵ mol/kg | 2,7 . 10⁻⁴ mol(kg
N=C(N)NN=C(c1ccccc1)c1cc(Cl)ccc1N.O=[N+]([O-])O [(E)-/(Z)-2-Amino-5-chlorbenzophenonamidinohydrazonnitrat] | 9,4 . 10⁻⁶ mol/kg | –
N=C(NN=C(c1ccccc1)c1cc(Cl)ccc1N)Nc1ccccc1.O=[N+]([O-])O [Beispiel 3, (E)-/(Z)-2-Amino-5-chlorbenzophenon-N-phenylamidinohydrazonnitrat] | 5,6 . 10⁻⁷ mol/kg | –
CCOC(=O)Nc1ccc2c(c1)N(C(=O)CCN1CCOCC1)c1ccccc1S2 [Etmozin] | 7,2 . 10⁻⁶ mol/kg | 1,8 . 10⁻⁴ mol(kg
[H]/N=C(\NN=C(c1ccccc1)c1cc(Cl)ccc1N)Nc1ccccc1 [(Z)-2-Amino-5-chlorbenzophenon-N-phenylamidinohydrazon] | 1,0 . 10⁻⁶ mol/kg | –
CCOc1ccccc1OCC(O)CNCCNCC(O)COc1ccccc1OCC (centres unmarked) [Falirythmin] | 2,7 . 10⁻⁶ mol/kg | 4,5 . 10⁻⁴ mol(kg
C=C[C@H]1CN2CC[C@H]1C[C@@H]2[C@@H](O)c1ccnc2ccc(OC)cc12 [Chinidin] | 1,4 . 10⁻⁵ mol/kg | 1,6 . 10⁻⁴ mol(kg
CC(C)N(CCC(C(N)=O)(c1ccccc1)c1ccccn1)C(C)C (centres unmarked) [Disopyramid] | 1,2 . 10⁻⁵ mol/kg | 3,2 . 10⁻⁴ mol(kg
CC[C@H]1C2C[C@H]3[C@@H]4N(C)c5ccccc5[C@]45C[C@@H]([C@@H]2[C@H]5O)[N@@+]3(CC(O)CN(CC)CC)[C@@H]1O (some centres unmarked) [Tachmalcor] | 5,5 . 10⁻⁷ mol/kg | 5,8 . 10⁻⁵ mol(kg
Cl.[H]/N=C(/NN=C(c1ccccc1)c1cc(Cl)ccc1N)Nc1ccccc1 [(E)-2-Amino-5-chlorbenzophenon-N-phenylamidinohydrazonhydrochlorid] | 1,6 . 10⁻⁶ mol/kg | –
